Assay results from the supplement of paper PMC6531468.
The other results are listed elsewhere or left out. Read counts after selection give these values, which scatter widely. Each score is taken over the longer molecules that contain the sequence shown.

How the values were obtained:
Assay in all cases: 6-mer SELEX enrichment z-score vs GST control; IMP3 is the RNA-binding protein IGF2BP3; higher = more enriched by binding
IMP3 KH1-4 = details: construct: KH1-4 (164-579); SELEX round: R4
Method: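 SELEX-seq with GST-tagged IMP3 KH1-4 (Pro164-Lys579) and an N40 RNA pool, round 4. 6-mer z-score of sequence-tag enrichment normalised to the corresponding GST SELEX round; RNA k-mers written as DNA (T for U).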

IMP3 RRM1-2 = details: construct: RRM1-2 (1-163); SELEX round: R2
Chain of IMP3 RRM1-2 (chain, as listed by the source): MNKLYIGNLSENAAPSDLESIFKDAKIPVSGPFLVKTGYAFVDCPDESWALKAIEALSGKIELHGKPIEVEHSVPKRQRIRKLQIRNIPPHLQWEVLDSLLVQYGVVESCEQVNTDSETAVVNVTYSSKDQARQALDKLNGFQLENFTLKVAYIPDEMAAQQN
Method: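 SELEX-seq with GST-tagged IMP3 RRM1-2 (Met1-Asn163) and an N40 RNA pool, round 2. 6-mer enrichment z-score normalised to GST SELEX. RNA written as DNA (T = U).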

IMP3 full-length = IMP3 full-length (UniProt O00425); details: construct: FL IMP3 (1-579); SELEX round: R4
Chain of UniProt O00425 (O00425 whole entry): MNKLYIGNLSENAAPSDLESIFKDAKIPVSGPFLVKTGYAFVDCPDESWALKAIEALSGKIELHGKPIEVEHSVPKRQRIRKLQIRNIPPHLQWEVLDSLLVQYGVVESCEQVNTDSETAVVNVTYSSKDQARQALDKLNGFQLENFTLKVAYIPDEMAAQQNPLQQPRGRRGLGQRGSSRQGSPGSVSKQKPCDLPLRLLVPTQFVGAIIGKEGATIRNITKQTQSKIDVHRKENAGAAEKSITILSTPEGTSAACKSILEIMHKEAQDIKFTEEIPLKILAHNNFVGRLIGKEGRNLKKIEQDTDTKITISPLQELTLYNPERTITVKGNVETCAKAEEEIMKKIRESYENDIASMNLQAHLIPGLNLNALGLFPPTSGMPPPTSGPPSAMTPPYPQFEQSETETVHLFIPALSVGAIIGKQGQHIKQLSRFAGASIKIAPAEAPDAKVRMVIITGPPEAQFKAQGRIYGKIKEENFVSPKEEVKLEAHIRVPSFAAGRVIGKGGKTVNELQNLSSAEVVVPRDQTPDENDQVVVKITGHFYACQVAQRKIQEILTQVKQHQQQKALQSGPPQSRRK
Method: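 SELEX-seq with GST-tagged full-length IMP3 and an N40 RNA pool, round 4. Each 6-mer is scored as an enrichment z-score of sequence tags containing it, normalised to the matching GST SELEX round. RNA written as DNA (T = U).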

IMP3 KH1-2 = details: construct: KH1-2 (164-376); SELEX round: R4
Chain of IMP3 KH1-2 (chain, as listed by the source): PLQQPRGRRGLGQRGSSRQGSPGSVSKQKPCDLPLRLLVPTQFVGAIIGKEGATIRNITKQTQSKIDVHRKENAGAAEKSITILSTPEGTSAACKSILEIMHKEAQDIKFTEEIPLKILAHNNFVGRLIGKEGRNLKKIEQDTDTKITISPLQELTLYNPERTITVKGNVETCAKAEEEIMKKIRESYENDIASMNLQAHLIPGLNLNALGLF
Method: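 SELEX-seq with GST-tagged IMP3 KH1-2 (Pro164-Phe376) and an N40 RNA pool, round 4 (stringent 300/600 mM KCl washes). 6-mer z-score of sequence-tag enrichment normalised to the corresponding GST SELEX round; RNA k-mers written as DNA (T for U).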

IMP3 KH3-4 = details: construct: KH3-4 (377-579); SELEX round: R4
Chain of IMP3 KH3-4 (chain, as listed by the source): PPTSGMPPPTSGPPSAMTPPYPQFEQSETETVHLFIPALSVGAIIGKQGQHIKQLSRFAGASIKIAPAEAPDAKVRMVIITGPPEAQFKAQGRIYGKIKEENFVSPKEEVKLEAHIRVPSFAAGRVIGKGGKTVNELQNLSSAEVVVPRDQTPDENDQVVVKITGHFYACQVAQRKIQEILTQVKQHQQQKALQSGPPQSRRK
Method: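 SELEX-seq with GST-tagged IMP3 KH3-4 (Pro377-Lys579) and an N40 RNA pool, round 4. 6-mer z-score of sequence-tag enrichment normalised to the corresponding GST SELEX round; RNA k-mers written as DNA (T for U).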

Chain of IMP3 KH1-4 (chain, as listed by the source): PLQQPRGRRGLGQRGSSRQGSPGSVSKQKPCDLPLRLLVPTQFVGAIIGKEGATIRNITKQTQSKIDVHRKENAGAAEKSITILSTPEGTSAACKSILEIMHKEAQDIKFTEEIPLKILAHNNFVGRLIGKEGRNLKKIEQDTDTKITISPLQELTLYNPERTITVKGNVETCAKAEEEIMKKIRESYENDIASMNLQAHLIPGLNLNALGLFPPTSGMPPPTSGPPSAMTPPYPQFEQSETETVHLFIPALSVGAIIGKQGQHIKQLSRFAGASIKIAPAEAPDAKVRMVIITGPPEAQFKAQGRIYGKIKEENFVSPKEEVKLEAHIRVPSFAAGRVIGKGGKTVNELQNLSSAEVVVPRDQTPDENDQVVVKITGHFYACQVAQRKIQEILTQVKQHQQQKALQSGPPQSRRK

| Sequence | 6-mer SELEX enrichment z-score (IMP3 KH1-4) | 6-mer SELEX enrichment z-score (IMP3 RRM1-2) | 6-mer SELEX enrichment z-score (IMP3 full-length) | 6-mer SELEX enrichment z-score (IMP3 KH1-2) | 6-mer SELEX enrichment z-score (IMP3 KH3-4) |
| --- | --- | --- | --- | --- | --- |
| GCTGCA | 1.1 | 0.219 | 0.93 | 0.927 | 0.567 |
| GTCCAA | -0.569 | -0.377 | -0.491 | -0.66 | -0.807 |
| GTTCGG | 0.374 | 0.393 | 0.683 | 0.247 | 0.486 |
| TCCTAA | -0.098 | -0.468 | -0.678 | -0.127 | -0.271 |
| AGGGTC | 0.188 | 0.205 | 0.466 | 0.277 | 0.319 |
| GCAAAG | -0.352 | -0.762 | -0.09 | -0.382 | -0.171 |
| TCTGTG | 0.042 | 0.266 | -0.019 | -0.07 | -0.019 |
| AAATCA | 0.787 | 2.37 | 1.33 | 0.784 | 0.94 |
| CGGTAC | -0.563 | 0.09 | 0.136 | -0.588 | -0.645 |
| GTCCAG | 0.038 | -0.082 | 0.221 | -0.106 | -0.23 |
| CGCACG | 0.146 | 0.374 | 0.904 | 0.155 | -0.375 |
| CAAGAC | -0.954 | 0.019 | -0.693 | -0.867 | -1.13 |
| TTCCGG | 0.317 | -0.032 | 0.22 | 0.247 | 0.221 |
| CATTGC | 0.616 | 0.825 | 0.849 | 0.519 | 0.192 |
| GATGTC | -0.112 | -0.138 | -0.089 | -0.234 | -0.022 |
| AAACCA | -1.01 | 0.004 | -1.62 | -0.565 | -1.13 |
| GCGTAA | -2.94 | -0.412 | -1.9 | -2.75 | -2.6 |
| ACGCTG | -0.02 | -0.369 | 0.024 | -0.007 | -0.215 |
| CCCATT | 0.218 | 0.067 | 0.029 | 0.176 | -0.357 |
| GATTAA | 1.11 | -0.784 | -0.384 | 0.911 | 1.96 |
| GATAGA | 0.874 | -0.831 | -0.246 | 0.673 | 1.24 |
| AGCAAT | -0.083 | 0.595 | 0.353 | -0.043 | 0.064 |
| CTGAGA | -0.826 | -0.907 | -0.913 | -0.752 | -0.649 |
| TTACAG | 0.893 | 0.258 | 0.598 | 1.02 | 0.973 |
| TATTCT | 0.803 | 0.447 | 0.247 | 0.81 | 0.859 |
| TAATCT | 0.497 | 0.121 | 0.039 | 0.41 | 0.559 |
| GACCTG | -1.36 | -0.917 | -1.28 | -1.24 | -1.46 |
| AGTTCC | -0.209 | 0.03 | -0.296 | -0.255 | -0.406 |
| GCTCTG | -0.118 | 0.161 | 0.191 | -0.027 | -0.042 |
| CGCAAA | -0.596 | -0.725 | -0.332 | -0.442 | -0.713 |
